Source: patent US20240209098A1 (NAVIGO PROTEINS, published 2024)

What was measured:
rabbit Type II collagen [1] = biological target: T1, rabbit Type II collagen (rabbit); assay: ELISA, rabbit Type II collagen coated on the plate, fusion protein titrated, detection with anti-human-IgG antibody
T1 construct: also called rbCol2; rbColII
Description: (§1) High binding plates (Greiner, 781061) were immobilized with 2.5 μg/ml recombinant human Type II collagen (hColll, Chondrex, CHX-20051), rabbit Type II collagen (rbColll, prepared from rabbit eyes), porcine Type 11 collagen (pColll, prepared from porcine eyes), human Type I collagen (hColl, Sigma, C5483-1MG), human Type V collagen (hCoIV, Abcam, ab7537), human Type III collagen (hCollll, Abcam, ab7535) and 67B89 (domain of fibronectin, produced in E. coli) over night at 4° C. Fusion proteins CID 212709, CID 213182, CID 213184 and CID 213340 were analyzed with a dilution series in a range of 1111 nM to 6.9×10⁻⁵ nM. ELISA-plates were washed 3 times with PBST (PBS+0.1% Tween) and blocked with 3% BSA/0.5% Tween/PBS 2 h at RT. Plates were washed with PBST and incubated with a-human-IgG-antibody at a dilution of 1:10000. Results.

human Type I collagen = biological target: T2, human Type I collagen (human, UniProt P02452 part only; P08123 80-1119); assay: ELISA, human Type I collagen coated on the plate, detection with anti-human-IgG antibody
T2 construct: also called hColI; Col I
Description: as §1

[2] = biological target: T3, 67B89 (domain of fibronectin, produced in E. coli) (UniProt P02751 1089-1540, limits assumed); assay: ELISA, 67B89 (fibronectin domain) coated on the plate, detection with anti-human-IgG antibody
T3 construct: domain: 67B89 (domain of fibronectin)
Description: as §1

human Type III collagen = biological target: T4, human Type III collagen (human, UniProt P02461 154-1221); assay: ELISA, human Type III collagen coated on the plate, detection with anti-human-IgG antibody
T4 construct: also called hColIII; Col III
T4 sequence (looked up): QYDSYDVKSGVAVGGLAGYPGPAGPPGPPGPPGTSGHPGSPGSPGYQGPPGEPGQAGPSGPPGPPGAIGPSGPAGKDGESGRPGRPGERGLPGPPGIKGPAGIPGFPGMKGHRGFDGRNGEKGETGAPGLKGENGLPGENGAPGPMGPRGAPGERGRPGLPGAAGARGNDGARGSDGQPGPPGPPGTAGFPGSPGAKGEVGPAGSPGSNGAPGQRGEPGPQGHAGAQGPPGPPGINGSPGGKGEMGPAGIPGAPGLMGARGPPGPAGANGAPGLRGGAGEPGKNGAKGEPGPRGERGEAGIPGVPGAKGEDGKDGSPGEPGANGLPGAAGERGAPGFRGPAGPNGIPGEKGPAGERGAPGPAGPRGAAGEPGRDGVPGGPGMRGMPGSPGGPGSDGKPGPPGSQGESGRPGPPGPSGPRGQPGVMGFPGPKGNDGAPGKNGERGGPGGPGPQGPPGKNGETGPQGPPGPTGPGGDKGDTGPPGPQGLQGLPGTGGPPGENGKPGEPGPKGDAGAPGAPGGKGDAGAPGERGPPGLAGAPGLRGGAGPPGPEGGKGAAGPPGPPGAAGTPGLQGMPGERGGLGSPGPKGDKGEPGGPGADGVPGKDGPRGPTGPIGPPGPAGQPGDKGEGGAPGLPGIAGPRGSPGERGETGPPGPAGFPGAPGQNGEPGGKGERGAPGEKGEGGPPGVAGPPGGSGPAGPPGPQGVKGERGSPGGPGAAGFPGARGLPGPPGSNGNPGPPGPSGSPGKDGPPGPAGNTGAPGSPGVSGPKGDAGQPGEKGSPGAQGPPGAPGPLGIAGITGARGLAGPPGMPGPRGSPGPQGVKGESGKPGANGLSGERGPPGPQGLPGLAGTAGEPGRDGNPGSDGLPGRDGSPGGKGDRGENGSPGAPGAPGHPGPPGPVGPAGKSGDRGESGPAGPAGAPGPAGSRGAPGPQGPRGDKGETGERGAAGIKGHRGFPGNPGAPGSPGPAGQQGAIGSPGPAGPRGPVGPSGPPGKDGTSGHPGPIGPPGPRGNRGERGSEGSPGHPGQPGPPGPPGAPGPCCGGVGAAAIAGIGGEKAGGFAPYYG
Description: as §1

human Type V collagen = biological target: T5, human Type V collagen (human, UniProt P20908 559-1570; P05997 216-1229); assay: ELISA, human Type V collagen coated on the plate, detection with anti-human-IgG antibody
T5 construct: also called hColV; Col V
Description: as §1

pig Type II collagen [3] = biological target: T6, pig Type II collagen (pig); assay: ELISA, pig Type II collagen coated on the plate, fusion protein titrated, detection with anti-human-IgG antibody
T6 construct: also called pCol2; pColII
Description: as §1

rabbit Type II collagen [4] = biological target: T1, rabbit Type II collagen; assay: SPR (Biacore 3000), target immobilised on CM5 chip, fusion protein as analyte, Langmuir 1:1
Description: (§2) Binding of Type II collagen or VEGF-A was evaluated by SPR measurements using Biacore 3000 (GE Healthcare). Purified Type II collagen was obtained by Chondrex.inc and VEGF-A (VEGF-165) was obtained by Millipore. The purified target proteins were immobilized on a CM-5 sensor chip (GE Healthcare) using NHS/EDC after PDEA activation resulting in about 1000 RU. The chip was equilibrated with SPR running buffer (PBS 0.05% Tween pH 7.3).
(§3) The analytes were applied to the chip in serial dilutions with a flow rate of 30 μl/min. The association was performed for 120 seconds and the dissociation for 120 seconds. After each run, the chip surface was regenerated with 30 μl regeneration buffer (10 mM glycine pH 2.0) and equilibrated with running buffer. Upon binding, fusion proteins were accumulated on the surface increasing the refractive index. This change in the refractive index was measured in real time and plotted as response or resonance units versus time. Data evaluation was operated via the BIAevaluation 3.0 software, provided by the manufacturer, by the use of the Langmuir 1:1 model (RI=0). Evaluated dissociation constants (KD) were standardized against the immobilized fusion protein and indicated. Shown is the change in refractive index measured in real time and plotted as response or resonance unit [RU] versus time [sec].

pig Type II collagen [5] = biological target: T6, pig Type II collagen; assay: as above
Description: as §2, §3

VEGF-A (VEGF-165) = biological target: T7, VEGF-A (VEGF-165) (human, UniProt P15692-4 27-191); assay: as above
T7 construct: The isoforms are said to be active as dimers; also called vascular endothelial growth factor
T7 sequence (looked up): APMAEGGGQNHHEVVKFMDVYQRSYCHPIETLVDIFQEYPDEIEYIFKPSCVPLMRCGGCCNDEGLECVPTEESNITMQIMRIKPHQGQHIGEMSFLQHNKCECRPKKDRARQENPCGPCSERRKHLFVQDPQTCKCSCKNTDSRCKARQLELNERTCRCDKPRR
Description: as §2, §3

Sequence of human Type V collagen (P20908 559-1570, chain 1 of 2): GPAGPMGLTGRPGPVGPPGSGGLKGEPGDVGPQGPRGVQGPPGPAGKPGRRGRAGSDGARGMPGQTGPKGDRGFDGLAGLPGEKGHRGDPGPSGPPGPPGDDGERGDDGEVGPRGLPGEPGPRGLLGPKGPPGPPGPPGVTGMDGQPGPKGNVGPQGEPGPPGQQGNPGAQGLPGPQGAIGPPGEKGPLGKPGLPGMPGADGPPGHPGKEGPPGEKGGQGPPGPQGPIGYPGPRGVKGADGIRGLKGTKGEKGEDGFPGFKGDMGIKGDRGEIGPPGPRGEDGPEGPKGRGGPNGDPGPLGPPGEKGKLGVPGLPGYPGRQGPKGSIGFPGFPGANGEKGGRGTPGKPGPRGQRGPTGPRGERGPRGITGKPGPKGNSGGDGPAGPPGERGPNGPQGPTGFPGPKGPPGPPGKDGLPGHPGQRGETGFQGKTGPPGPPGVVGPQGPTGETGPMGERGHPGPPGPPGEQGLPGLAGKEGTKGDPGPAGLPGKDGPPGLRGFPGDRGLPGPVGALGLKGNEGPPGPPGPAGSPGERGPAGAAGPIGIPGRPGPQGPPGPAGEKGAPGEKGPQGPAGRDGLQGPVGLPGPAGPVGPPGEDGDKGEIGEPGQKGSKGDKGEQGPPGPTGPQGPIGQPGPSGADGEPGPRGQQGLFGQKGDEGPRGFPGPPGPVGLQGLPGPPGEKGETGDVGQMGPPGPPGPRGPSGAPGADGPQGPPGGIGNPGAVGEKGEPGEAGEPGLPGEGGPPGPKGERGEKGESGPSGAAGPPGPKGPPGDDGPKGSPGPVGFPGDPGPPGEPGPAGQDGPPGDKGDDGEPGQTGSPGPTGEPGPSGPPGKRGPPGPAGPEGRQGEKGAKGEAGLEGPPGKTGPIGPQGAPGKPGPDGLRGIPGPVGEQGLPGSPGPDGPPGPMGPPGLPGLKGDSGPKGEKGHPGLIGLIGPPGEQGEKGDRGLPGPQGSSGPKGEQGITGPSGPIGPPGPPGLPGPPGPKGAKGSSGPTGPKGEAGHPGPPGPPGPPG
Sequence of human Type V collagen (P05997 216-1229, chain 2 of 2, further chain): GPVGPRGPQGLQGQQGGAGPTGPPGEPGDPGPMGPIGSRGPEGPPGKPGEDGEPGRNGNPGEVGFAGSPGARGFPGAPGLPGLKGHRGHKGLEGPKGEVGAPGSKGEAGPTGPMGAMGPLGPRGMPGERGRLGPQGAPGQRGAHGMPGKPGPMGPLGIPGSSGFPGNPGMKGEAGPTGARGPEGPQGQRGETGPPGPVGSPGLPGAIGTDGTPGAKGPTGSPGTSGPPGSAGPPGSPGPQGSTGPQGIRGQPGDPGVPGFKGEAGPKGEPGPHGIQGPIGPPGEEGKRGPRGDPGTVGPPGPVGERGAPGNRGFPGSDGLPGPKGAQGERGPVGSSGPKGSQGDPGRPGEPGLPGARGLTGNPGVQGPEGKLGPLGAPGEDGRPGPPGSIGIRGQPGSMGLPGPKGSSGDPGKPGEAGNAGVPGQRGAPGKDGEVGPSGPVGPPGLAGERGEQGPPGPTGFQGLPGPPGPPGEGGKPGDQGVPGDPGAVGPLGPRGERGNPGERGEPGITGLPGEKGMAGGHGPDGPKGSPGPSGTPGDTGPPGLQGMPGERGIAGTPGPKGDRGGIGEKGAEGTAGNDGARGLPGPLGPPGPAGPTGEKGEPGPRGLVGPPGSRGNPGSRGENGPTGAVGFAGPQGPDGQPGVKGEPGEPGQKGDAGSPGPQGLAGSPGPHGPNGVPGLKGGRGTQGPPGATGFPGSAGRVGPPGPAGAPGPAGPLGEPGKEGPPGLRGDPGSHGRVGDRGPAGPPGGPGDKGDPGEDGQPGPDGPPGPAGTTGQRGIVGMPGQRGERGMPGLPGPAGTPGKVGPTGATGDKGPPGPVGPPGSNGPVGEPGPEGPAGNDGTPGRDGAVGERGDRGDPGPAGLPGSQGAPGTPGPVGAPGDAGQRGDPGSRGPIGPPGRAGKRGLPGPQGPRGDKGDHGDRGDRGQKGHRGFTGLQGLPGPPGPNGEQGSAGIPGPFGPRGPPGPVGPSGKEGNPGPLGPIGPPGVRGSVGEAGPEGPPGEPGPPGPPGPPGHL
Sequence of human Type I collagen (P02452 162-1218, chain 1 of 2): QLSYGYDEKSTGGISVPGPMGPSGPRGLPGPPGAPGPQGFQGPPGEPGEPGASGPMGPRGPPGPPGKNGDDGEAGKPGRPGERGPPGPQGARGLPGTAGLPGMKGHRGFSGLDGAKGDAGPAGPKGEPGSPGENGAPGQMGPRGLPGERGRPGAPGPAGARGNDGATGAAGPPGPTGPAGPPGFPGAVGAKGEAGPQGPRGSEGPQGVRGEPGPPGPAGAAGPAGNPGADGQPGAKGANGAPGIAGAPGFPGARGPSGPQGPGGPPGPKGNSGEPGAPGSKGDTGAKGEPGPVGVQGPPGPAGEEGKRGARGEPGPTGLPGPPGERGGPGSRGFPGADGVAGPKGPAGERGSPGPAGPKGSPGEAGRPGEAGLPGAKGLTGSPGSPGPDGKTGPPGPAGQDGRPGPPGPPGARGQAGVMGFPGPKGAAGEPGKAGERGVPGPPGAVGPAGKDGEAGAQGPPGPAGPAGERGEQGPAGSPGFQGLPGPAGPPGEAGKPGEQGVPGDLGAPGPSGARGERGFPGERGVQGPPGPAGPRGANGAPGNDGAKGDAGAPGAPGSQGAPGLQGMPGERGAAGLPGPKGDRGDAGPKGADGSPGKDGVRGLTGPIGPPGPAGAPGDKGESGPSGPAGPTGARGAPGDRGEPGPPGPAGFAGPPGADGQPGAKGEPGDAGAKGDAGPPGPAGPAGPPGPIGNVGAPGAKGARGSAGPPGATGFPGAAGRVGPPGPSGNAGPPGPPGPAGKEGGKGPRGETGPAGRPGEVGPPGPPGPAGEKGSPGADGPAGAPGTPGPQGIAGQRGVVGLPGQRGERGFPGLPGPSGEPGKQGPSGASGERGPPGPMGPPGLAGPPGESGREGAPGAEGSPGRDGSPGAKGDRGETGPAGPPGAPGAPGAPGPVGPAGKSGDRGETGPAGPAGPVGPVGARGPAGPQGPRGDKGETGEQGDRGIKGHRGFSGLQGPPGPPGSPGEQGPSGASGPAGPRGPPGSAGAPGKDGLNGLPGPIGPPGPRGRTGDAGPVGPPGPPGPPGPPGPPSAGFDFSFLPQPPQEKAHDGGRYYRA
Sequence of human Type I collagen (P08123 80-1119, chain 2 of 2, further chain): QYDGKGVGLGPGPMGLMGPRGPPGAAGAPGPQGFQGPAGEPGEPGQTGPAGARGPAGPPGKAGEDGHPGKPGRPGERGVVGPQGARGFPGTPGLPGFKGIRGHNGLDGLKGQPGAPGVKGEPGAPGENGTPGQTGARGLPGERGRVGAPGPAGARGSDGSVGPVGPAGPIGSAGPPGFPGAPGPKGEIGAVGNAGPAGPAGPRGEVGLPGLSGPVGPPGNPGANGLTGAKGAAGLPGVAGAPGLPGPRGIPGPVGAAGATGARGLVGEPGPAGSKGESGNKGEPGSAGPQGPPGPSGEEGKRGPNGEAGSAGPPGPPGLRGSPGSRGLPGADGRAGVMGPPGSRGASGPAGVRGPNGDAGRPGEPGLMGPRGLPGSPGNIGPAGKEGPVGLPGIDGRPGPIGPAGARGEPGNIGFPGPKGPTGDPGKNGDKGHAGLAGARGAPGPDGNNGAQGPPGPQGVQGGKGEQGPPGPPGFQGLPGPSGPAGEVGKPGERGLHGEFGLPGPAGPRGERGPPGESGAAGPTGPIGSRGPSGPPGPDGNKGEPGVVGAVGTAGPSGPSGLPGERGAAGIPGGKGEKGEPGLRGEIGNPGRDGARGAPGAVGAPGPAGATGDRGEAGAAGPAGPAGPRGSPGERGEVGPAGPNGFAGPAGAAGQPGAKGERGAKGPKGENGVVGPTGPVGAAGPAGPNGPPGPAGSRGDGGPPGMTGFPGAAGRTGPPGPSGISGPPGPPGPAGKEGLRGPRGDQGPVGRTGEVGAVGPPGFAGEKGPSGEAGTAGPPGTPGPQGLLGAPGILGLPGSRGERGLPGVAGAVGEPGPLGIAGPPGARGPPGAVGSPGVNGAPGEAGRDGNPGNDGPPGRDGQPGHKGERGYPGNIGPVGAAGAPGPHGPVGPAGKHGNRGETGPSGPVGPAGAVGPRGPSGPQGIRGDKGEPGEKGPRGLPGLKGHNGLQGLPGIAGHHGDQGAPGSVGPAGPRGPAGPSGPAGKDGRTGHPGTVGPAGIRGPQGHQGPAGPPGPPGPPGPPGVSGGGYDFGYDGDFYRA
T3 sequence (P02751 1089-1540 limits assumed): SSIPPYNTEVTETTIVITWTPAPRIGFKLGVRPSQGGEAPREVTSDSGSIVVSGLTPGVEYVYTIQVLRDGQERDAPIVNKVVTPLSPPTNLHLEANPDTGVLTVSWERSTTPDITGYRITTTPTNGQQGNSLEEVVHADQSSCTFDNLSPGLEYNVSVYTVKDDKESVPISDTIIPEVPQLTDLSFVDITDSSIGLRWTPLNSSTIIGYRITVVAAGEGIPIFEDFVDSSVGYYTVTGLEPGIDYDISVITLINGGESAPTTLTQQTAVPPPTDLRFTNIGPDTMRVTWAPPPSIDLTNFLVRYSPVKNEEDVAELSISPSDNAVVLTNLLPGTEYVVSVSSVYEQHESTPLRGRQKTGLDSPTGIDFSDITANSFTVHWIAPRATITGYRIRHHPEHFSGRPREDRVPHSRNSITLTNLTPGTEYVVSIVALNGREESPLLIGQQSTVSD

B1: CID 213182, fusion protein n[VEGF-BP, Col2-BP1 as dimer]c (Fc fusion)
chain: SDTGRPFVEMYSEIPEIIHMTEGRELVIPCRVTSPNITVTLKKFPLDTLIPDGKRIIWDSRKGFIISNATYKEIGLLTCEATVNGHLYKTNYLTHRQTNTIIDVVLSPSHGIELSVGEKLVLNCTARTELNVGIDFNWEYPSSKHQHKKLVNRDLKTQSGSEMKKFLSTLTIDGVTRSDQGLYTCAASSGLMTKKNSTFVRVHEK[skipping human IgG1 Fc]GGGSGGGGSGGGGSIAAKFDEAQSAADSEILHLPNLTEQQRHYFRRWLSDDPSVSTHILTQAQHLNDDQAPKIAAKFDEAQSAADSEILHLPNLTEQQRHYFRRWLSDDPSVSTHILTQAQHLNDDQAPK
notes: Made in Expi293-F cells; also called fusion protein 213182
With B1 the Kd (rabbit Type II collagen [1]) was 0.11 nM, the binding result (human Type I collagen) was “no binding” and the binding result [2] was “no binding”. The binding result (human Type III collagen) was “no binding”, the binding result (human Type V collagen) was “no binding” and the Kd (pig Type II collagen [3]) was 0.11 nM. The Kd (rabbit Type II collagen [4]) was 1.05 nM, the Kd (pig Type II collagen [5]) was 1.15 nM and the Kd (VEGF-A (VEGF-165)) was 2.2 nM.

B2: CID 217793, fusion protein n[Col2-BP1_as dimer - VEGF-BP]c (Fc fusion)
chain: IAAKFDEAQSAADSEILHLPNLTEQQRHYFRRWLSDDPSVSTHILTQAQHLNDDQAPKIAAKFDEAQSAADSEILHLPNLTEQQRHYFRRWLSDDPSVSTHILTQAQHLNDDQAPKGGGGSGGGGSGGGGSSDTGRPFVEMYSEIPEIIHMTEGRELVIPCRVTSPNITVTLKKFPLDTLIPDGKRIIWDSRKGFIISNATYKEIGLLTCEATVNGHLYKTNYLTHRQTNTIIDVVLSPSHGIELSVGEKLVLNCTARTELNVGIDFNWEYPSSKHQHKKLVNRDLKTQSGSEMKKFLSTLTIDGVTRSDQGLYTCAASSGLMTKKNSTFVRVHEK[skipping human IgG1 Fc]
notes: Col2-BP1 at the N-terminus, Aflibercept at the C-terminus
Work on B2 yielded a Kd (VEGF-A (VEGF-165)) of 2 nM.

B3: CID 213184, fusion protein n[VEGF-BP, Col2-BP1 as tetramer]c (Fc fusion)
chain: SDTGRPFVEMYSEIPEIIHMTEGRELVIPCRVTSPNITVTLKKFPLDTLIPDGKRIIWDSRKGFIISNATYKEIGLLTCEATVNGHLYKTNYLTHRQTNTIIDVVLSPSHGIELSVGEKLVLNCTARTELNVGIDFNWEYPSSKHQHKKLVNRDLKTQSGSEMKKFLSTLTIDGVTRSDQGLYTCAASSGLMTKKNSTFVRVHEK[skipping human IgG1 Fc]GGGSGGGGSGGGGSIAAKFDEAQSAADSEILHLPNLTEQQRHYFRRWLSDDPSVSTHILTQAQHLNDDQAPKIAAKFDEAQSAADSEILHLPNLTEQQRHYFRRWLSDDPSVSTHILTQAQHLNDDQAPKIAAKFDEAQSAADSEILHLPNLTEQQRHYFRRWLSDDPSVSTHILTQAQHLNDDQAPKIAAKFDEAQSAADSEILHLPNLTEQQRHYFRRWLSDDPSVSTHILTQAQHLNDDQAPK
notes: also called fusion protein 213184
Binder B3 has a Kd (rabbit Type II collagen [4]) of 0.52 nM, a Kd (pig Type II collagen [5]) of 0.39 nM and a Kd (VEGF-A (VEGF-165)) of 4.14 nM.
